Test results taken from ChEMBL document CHEMBL4888484, “Replenishing the malaria drug discovery pipeline: Screening and hit evaluation of the MMV Hit Generation Library 1 (HGL1) against asexual blood stage Plasmodium falciparum ,using a nano luciferase reporter read-out” (2022).
Screen size: about 150,000 compounds; about 540 (0.36%) showed an effect of 50% or more. The list shows a part of the results.

Each molecule was assayed on Plasmodium falciparum (assay: Primary screen in NF54 nanoGlo assay, in single point, at 2uM, 72h; a lower Z score goes with more inhibition). Conditions: timepoint 72 hour.
Assay type: functional, Erythrocyte

| Structure (SMILES) | % Inhibition [%] | Z score |
| --- | --- | --- |
| CC[C@H]1[C@H](NC(=O)c2c[nH]c(=O)c(Cl)c2)[C@H]2CCO[C@H]21 | -7 | 1 |
| O=C(CCCc1nc(C2CC2)no1)N[C@H]1CCN(CC2CCCC2)C1 | 8 | -1.57 |
| Cc1ccnc(NCCCc2nc(C)c(C)s2)n1 | -10 | 1.66 |
| COC(=O)c1nc(NC(=O)CCc2c(C)n[nH]c2C)sc1CC(C)C | -5 | 0.67 |
| CC(=O)N(CCCN1CCOCC1)[C@H]1CCN(C(=O)COc2cccc(C)c2)C1 | 4 | -0.43 |
| Cc1cnc2c(c1NC1CCCC1)c(=O)n(C)c(=O)n2C | -2 | 0.26 |
| Cc1cc(C)cc(CN2CCN(c3ncnc4onc(C)c34)CC2=O)c1 | -9 | 1.37 |
| COC(=O)[C@H](CC1CCCCC1)NC(=O)c1cccc(F)c1F | -8 | 1.28 |
| Cc1cc(C(=O)N2CC(OCc3cccc(F)c3)C2)c(C)o1 | -4 | 0.81 |
| N#Cc1nccnc1O[C@H]1CC[C@H](NC(=O)c2ccoc2)CC1 | -5 | 0.57 |
| COc1ccc(-c2cn3cc(-c4ccccc4)c4c3n2CCCC4)cc1 | -8 | 1.46 |
| N#CCCn1ncc2c(N3CCC4CCCCC4C3)ncnc21 (stereo not given) | -9 | 1.89 |
| CCOC(=O)C1CCC2(CC1)NC(=O)[C@@H]1CCCCN12 (stereo not given in full) | -3 | 0.54 |
| CCCN(Cc1sc(C)nc1C(F)(F)F)C[C@H]1CCCCO1 | -7 | 0.79 |
| Cn1ncc(Cl)c1S(=O)(=O)N1CCN(C2CC2)CC1 | -13 | 1.13 |
| O=C(Nc1ccc(N2CCCC2=O)cc1)NC1CCCCCCC1 | 0 | 0.01 |
| CN(CCCNC(=O)CNS(C)(=O)=O)c1ccccc1F | -1 | 0.13 |
| Brc1ccc(Oc2ncc(CN3CCOCC3)s2)cc1 | 31 | -0.7 |
| OC[C@H](c1ccccc1)n1ccnc1-c1cc2n(n1)CCCNC2 | -6 | 0.84 |
| COc1ccc(-c2cc(N)n(-c3nc(-c4ccc(C)cc4)cs3)n2)cc1 | 11 | -1.65 |
| CC(C)(C)CC(=O)Nc1ccc2c(c1)cc(C(=O)Nc1ccc(C(F)(F)F)cc1)n2Cc1ccc(C(C)(C)C)cc1 | 1 | -0.11 |
| CC(C)(C)c1nccc(NC(=O)c2ccoc2Br)n1 | -4 | 0.54 |

| Structure (SMILES) | % Inhibition [%] | Z score |
| --- | --- | --- |
| c1ccc2cc(Oc3ncnc4sccc34)ccc2c1 | -2 | 0.32 |
| C[C@]1(O)CCN(C(=O)c2cncc(Cl)c2)C[C@H]1Cc1ccccc1 | 9 | -1.18 |
| O=C(Cc1cccnc1)N1CCC(N2C[C@H](Oc3ccccc3)[C@@H]2c2ccncc2)CC1 | -11 | 1.43 |
| Cc1nnsc1C(=O)NCC(C)(C)c1ccsc1 | -5 | 0.98 |
| CCCN(Cc1ccc(OC)c(OC)c1)C[C@H](O)COC(C)C | -5 | 0.66 |
| CNc1cc(-c2ncc(F)c(N3CCOCC3)n2)c2cc[nH]c2n1 | -7 | 1.43 |
| CN(C)[C@@H](CNC(=O)c1ccc(F)c(Cl)c1F)C1CC1 | -11 | 1.55 |
| CCCS(=O)(=O)CCn1ccnc1 | 4 | -0.51 |
| CC(C)(C)N(CC(N)=O)C(=O)c1scnc1C1CC1 | 2 | -0.27 |
| CCC[C@@](C)(CCCNC(=O)c1cnc(OC(C)C)c(Cl)c1)C1OCCO1 | 1 | -0.11 |
| OCCNc1nc(Nc2ccc(F)cc2)c2nn[nH]c2n1 | -14 | 2.2 |
| CC(C)(CN1CCOCC1)CN1CCc2nocc2C1 | -2 | 0.26 |
| Cn1c(=O)n2nnnc2c2ccccc21 | -6 | 0.89 |
| O=C(Cn1nc(-c2ccncc2)oc1=S)c1ccc(Cl)cc1 | -2 | 0.37 |
| CCc1nc(-c2cc(NC(=O)c3ccc(C)cc3)c(C)s2)no1 | -4 | 0.38 |
| Cc1ccc(CCNC(=O)CCC(=O)Nc2c(F)cccc2F)o1 | -14 | 2.57 |
| CC(=O)NC1CCC(Nc2ccc3c(c2)OC(C)(C)O3)CC1 (stereo not given) | -7 | 0.86 |
| O=C(NCCc1ccco1)[C@@H]1CCN(c2ccccc2)C1=O | -10 | 0.99 |
| Cc1nn(C)c(Cl)c1CN(CCN1CCCCC1)C[C@H]1CCCN(C2CCCC2)C1 | -10 | 1.38 |
| C[C@@H]1CN(Cc2nnnn2CC(=O)NCc2cccc(Cl)c2)C[C@H](C)O1 | -11 | 0.99 |
| O=C(Nc1cccc2c1CCCC2)c1cccc2ccccc12 | -15 | 2.76 |
| C[C@@H]1CN(CC(=O)NCc2csc(N3CCCC3)n2)C[C@H](C)O1 | -10 | 1.85 |

| Structure (SMILES) | % Inhibition [%] | Z score |
| --- | --- | --- |
| COCC(C)(C)C(=O)NCc1cccc2nsnc12 | -1 | 0.13 |
| C[C@@H](Cc1ccco1)NC(=O)c1cc(-c2cccc(Cl)c2)[nH]n1 | -5 | 0.8 |
| O=C(c1ccc(Cl)cn1)N(Cc1nccn1C(F)F)C1CC1 | 0 | 0 |
| CC1CCCN(C(=O)C(C)S(C)(=O)=O)C1 (stereo not given) | -8 | 1.33 |
| O=C(N[C@H]1C[C@@H](c2cc(=O)[nH]c(C3CC3)n2)C1)c1cc(CO)ccn1 | -12 | 2.2 |
| CC(C)(C)C(=O)N1CCc2ccc(OCc3ccc(C(=O)Nc4ccc(F)cc4)o3)cc2[C@@H]1c1cccc(F)c1 | -2 | 0.22 |
| Cc1ccc(N2C(=O)C3C4C=CC(C4=C4CCCCC4)C3C2=O)cc1Cl (stereo not given) | -11 | 1.34 |
| O=C(NC1CCCCCC1C(=O)O)c1cccs1 (stereo not given) | -18 | 2.48 |
| CCn1c(CO)nnc1[C@H]1C[C@H](Nc2nc(C)nc3ccsc23)C1 | -8 | 1.25 |
| Cc1cc(C(=O)N2CCNC[C@H]2C(F)F)oc1C | -7 | 1.2 |
| Cn1ccc2cccc(S(=O)(=O)NCCCCC(N)=O)c21 | -4 | 0.79 |
| Cn1nnc2cc(C(=O)NCC3(CN4CCOCC4)CCCCC3)cnc21 | -3 | 0.53 |
| N#Cc1cc(NC2CCCC2O)nc2ccccc12 (stereo not given) | -8 | 0.76 |
| Cc1cccc(Cn2nc(C)c3[nH]c(C4CCOCC4)nc32)c1 | -14 | 1.85 |
| O=C(CNc1ccc(Br)cc1Cl)NC(=O)NC1CCCC1 | -7 | 0.96 |
| CCOC(=O)c1ccc2c(c1)N(Cc1ccnn1CC)CCO2 | -4 | 0.61 |
| CC(C)C(=O)N1CCC([C@@H]2CN(CCCc3ccccc3)C[C@H]2CO)CC1 | -18 | 2.16 |
| Cc1cc(C)c(S(=O)(=O)Nc2ccc(N3CCNCC3)c(C(=O)N3CCCCCC3)c2)cc1C | -12 | 1.35 |
| Cn1nc(CN(C2CCCC2)S(=O)(=O)c2cccnc2)c2c1CCC2 | -20 | 3.34 |
| Cc1cc(C(=O)N[C@H]2CCN(Cc3c(C)noc3C)C[C@@H]2O)nc(C)n1 | -25 | 2.72 |
| O=C(NC1CC1)N1C2CCC1CC(Oc1ccncc1)C2 (stereo not given) | -21 | 2.43 |
| Cn1cc(C(=O)N2CC[C@H](O)C23CCCC3)c2ccccc21 | -13 | 1.87 |

| Structure (SMILES) | % Inhibition [%] | Z score |
| --- | --- | --- |
| O=C(NCc1ccco1)C1CCC(N2C(=O)c3ccccc3C2=O)CC1 (stereo not given) | 9 | -1.15 |
| CC(C)c1ccc2cc(C(=O)N3CCN4C(=O)CN(C)C(=O)[C@@H]4C3)[nH]c2c1 | 0 | -0.03 |
| CCOC(=O)[C@@H](NC(=O)Cc1c(C)n[nH]c1C)C1CCCCCC1 | -12 | 1.89 |
| CC(C)(C)c1nc(C(=O)N[C@@H](CCF)C(=O)O)cs1 | -14 | 1.97 |
| Cc1cc(O)c([C@H](c2cccnc2)N2CCN(C)CC2)c(=O)n1Cc1ccccc1 | -7 | 1.01 |
| CN(C)CC(C)(C)CNc1nc2c(c(=O)[nH]1)Cc1ccccc1OC2 | 9 | -1.69 |
| O=C(C[C@H]1COCCN1C(=O)CCn1cc(Cl)cn1)NCc1ccncc1 | -2 | 0.33 |
| Cc1ccc(C)n1-c1ccc2snnc2c1 | 6 | -0.63 |
| CC(=O)NCc1cc2n(n1)CCN(c1cc(OC(C)C)nc(N)n1)C2 | -10 | 1.1 |
| Oc1ccc(Cl)c(CN2CCOC[C@@H](O)C2)c1Cl | -8 | 1.2 |
| Cc1cc(C)c2ccc(C(=O)N3CCN(c4ncc[nH]c4=O)CC3)cc2n1 | -3 | 0.43 |
| O=C(c1cccc(C#Cc2ccccc2)c1)N1CCN(C(c2ccccc2)c2ccccc2)CC1 | -8 | 1.42 |
| Cc1cnc(CN2CCN([C@H](C#N)c3ccccc3)CC2)cn1 | -1 | 0.1 |
| Cc1ccc(CN2C(=O)N(c3cccc(F)c3)c3ncccc3S2(=O)=O)cc1 | -14 | 1.4 |
| CCCCNC(=O)[C@@H]1CCCC[C@@H]1C(=O)Nc1cc(C)c2nc(N)sc2c1 | 13 | -2.4 |
| COCCN(Cc1ccsc1)S(=O)(=O)c1cccc(C(=O)N2CCC2)c1 | -7 | 1.18 |
| O=C(O)C1(Oc2ccc3c(c2)CCC3)CCN(c2ncccn2)CC1 | 1 | -0.17 |
| Cc1cc(C)n2ncc(-c3noc(C4CCCCN4C(=O)C4CC4C)n3)c2n1 (stereo not given) | 5 | -0.59 |
| CCCN1C[C@@H](NC(=O)c2ccccc2-c2cccc(C)c2)CC1=O | 8 | -0.85 |
